Laboratory results from PubChem BioAssay AID485313 (National Center for Advancing Translational Sciences (NCATS), 2010).
“And” between values parts separate entries of the source, which are not always exact repeats. Identical values can stand only once. The whole screen tested about 320,000 compounds, of which about 7,600 (2.4%) were called active. The shares of active, inactive and inconclusive entries below differ from those in the screen. Calls follow the shape of the dose curve; as a rule, active = well fitted activation curve with a large enough effect; inconclusive = small, poorly fitted or top-dose-only effect; inactive = no such curve, though single readings can be large or run the other way. Potencies of inconclusive entries are left out as doubtful fits.

experiment: qHTS Assay for NPC1 Promoter Activators; conditions: Huh7 NPC1 promoter luciferase reporter, 24 h; series mostly up to 9.22 µM; also: nearly all actives have a fitted effect of over 60% in size;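 as to activation: reporter is driven by a mutant NPC1 promoter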
Summary of the method: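 Cells: Huh7 expressing luciferase under the NPC1 promoter, 1500/well. Seeded 2 h, compound added, incubated 24 h at 37 °C. Luciferase reagent, 10 min ambient, then luminescence.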
Potency is read from the fitted curve at half-maximal effect; tags tell the direction and shape of the fitted curve.

SMILES | Potency
NS(=O)(=O)c1ccc(C(=O)Nc2ccc(-c3nc4cccnc4s3)cc2)cc1 | active: 1.41 µM
Cn1c(CC(=O)Nc2ccccc2Cl)nnc1SCC(=O)NC1CCCCC1 | inactive
Cc1ccc(-c2nc(N/N=C/c3ccncc3)c3ccccc3n2)cc1 | inconclusive [activator, single point]
Cc1ccc2nc(-c3ccc(NS(=O)(=O)c4c(C)n(C)c(=O)n(C)c4=O)cc3)sc2c1 | active: 3.16 µM
COc1ccc(CNc2ccc3c(c2)nc(C)n3C)cc1 | active: 2.51 µM
COc1ccc(C(=O)Oc2c(CN3CCOCC3)cc(Cl)c3cccnc23)cc1 | inactive
CSCCC(=O)Nc1ccc(C(C)=O)cc1 | inconclusive [activator, partial curve]
OCC1CCCN(C(=S)Nc2ccc(Oc3ccccc3)cc2)C1 (configuration not stated) | inconclusive [activator, partial curve]
Cc1ccc(N2NC(C)(c3cccs3)NC2=S)cc1 (configuration not stated) | active: 4.47 µM
COCn1c(-c2ccc(OC)c(OC)c2)nc2ccccc21 | inconclusive [activator, partial curve]
Cc1ccnc(NC(=O)CCCc2ccccc2)c1 | inconclusive [activator, partial curve]
N#Cc1cc2c(nc1SCC(=O)Nc1sc3c(c1C#N)CCC3)CCC2 | inconclusive [activator, partial curve]
Cc1ccccc1C(=O)NC(=S)N(C)C1CCCCC1 | inconclusive [activator, single point]
CCOc1ccc(NCc2nc3ccccc3n2CCOc2ccccc2)cc1 | inconclusive [activator, single point]
O=C(NN1CCOCC1)c1cc(-c2ccc(Br)s2)nc2ccccc12 | inactive
CS(=O)(=O)c1ccc2nc(NC(=O)c3ccccc3)sc2c1 | active: 0.631 µM
FC(F)(F)c1ccc(NCc2ccccn2)nc1 | inconclusive [activator, single point]
O=C(Nc1ccccc1OC(=O)c1ccc(Cl)cc1)c1ccc(Cl)cc1 | inconclusive [activator, partial curve]
Cc1csc(NC(=O)c2ccc3ccccc3n2)n1 | active: 0.501 µM
CC(=O)Nc1ccc(-c2nc3cc(Cl)ccc3o2)cc1 | active: 0.501 µM
O=[N+]([O-])c1cc(CN(CCO)CCO)ccc1O | inactive
CCOc1ccc(/C=C2\SC(=S)N(CC(=O)NCCCN3CCOCC3)C2=O)cc1 | inactive
COc1ccc(CC(=O)n2nc(-c3ccc(Cl)cc3)nc2NCc2ccco2)cc1 | inconclusive [activator, partial curve]
CCOc1ccc2nc(N3CCCC(C(=O)NCC4CCCO4)C3)sc2c1 (configuration not stated) | inconclusive [activator, partial curve]

SMILES | Potency
CCOC(=O)C1=C(N)OC2=C(C(=O)CC(C)(C)C2)C1c1ccco1 (configuration not stated) | inconclusive [activator, single point]
Cc1cc(NC(=O)c2cccs2)ncc1NC(=O)C(C)(C)C | active: 0.891 µM
O=C(COc1ccc(Cl)cc1Cl)Nc1cccc(-c2ccc(N3CCOCC3)nn2)c1 | inconclusive [activator, full curve]
CC(OC(=O)c1ccc(F)cc1)C(=O)Nc1nc(-c2cccc([N+](=O)[O-])c2)cs1 (configuration not stated) | inactive
COc1ccccc1Oc1ccc(N/C=C/C(=O)c2ccc(C)o2)cc1 | inconclusive [activator, single point]
ClCC1=Nc2cccc3cccc(c23)N1 | inconclusive [activator, partial curve]
CCOc1ccc(C(=O)Nc2cccc(-c3ccc(N4CCOCC4)nn3)c2)cc1OCC | inconclusive [activator, single point]
CCOC(=O)c1c(C)c(C(=O)NCCc2ccccc2)c(C)n1C | inconclusive [activator, partial curve]
CCn1c2ccccc2c2cc(NC(=O)N3CCOCC3)ccc21 | inconclusive [activator, partial curve]
Cc1ccc(OCc2cc(C(=O)NCC3COCCO3)no2)cc1C (configuration not stated) | inactive
c1ccc(-c2noc(-c3ccc4c(c3)OCO4)n2)nc1 | inconclusive [activator, full curve]
CCOc1cc(/C=N/NC(=O)c2ccccc2-n2cccc2)ccc1O | inactive
CCN(CC)c1ccc(/C=N/NC(=O)CCC(=O)NCc2ccccc2)c(O)c1 | inactive
Cn1ccc2cc3c(cc21)CCN3C(=O)Nc1cccnc1 | active: 3.98 µM and active: 3.66 µM
Cc1ccc(Nc2nc(C)cs2)cc1 | inconclusive [activator, full curve, poor fit]
Cc1cnc(C(=O)NCCc2ccc(Cl)cc2)cn1 | inconclusive [activator, partial curve]
CC(C)(C)C(=O)Nc1ccc2oc(-c3cc(F)c(F)cc3Cl)nc2c1 | inconclusive [activator, partial curve]
N#C/C(=C/c1ccc(N2CCCC2)c([N+](=O)[O-])c1)c1nc2ccccc2[nH]1 | inconclusive [activator, partial curve]
Clc1cccc(-c2nc(-c3ccc(-c4nn[nH]n4)cc3)no2)c1 | inconclusive [activator, single point]
O=C(CC(SCCO)c1ccc2c(c1)OCO2)c1ccco1 (configuration not stated) | inconclusive [activator, single point]
Cc1ccc(NC(=O)CSCc2ccco2)cc1 | inconclusive [activator, partial curve]
O=C(CNCc1ccccc1)Nc1ccc(Cl)cc1 | inconclusive [activator, single point]
Cc1cccn2c(=O)c3cc(C(=O)NCCN4CCOCC4)n(C)c3nc12 | inconclusive [activator, partial curve]
